Where “and” joins values, the source holds several entries; their conditions need not be identical. Equal values may be shown once. Hit rate of the full screen: of about 350,000 compounds, about 31,000 (8.9%) were called active. The shares of active, inactive and inconclusive entries below differ from those in the screen. Calls follow the shape of the dose curve; as a rule, active = well fitted inhibition curve with a large enough effect; inconclusive = small, poorly fitted or top-dose-only effect; inactive = no such curve, though single readings can be large or run the other way. A potency beside an inconclusive call is a rough fit, not a confirmed value.
The molecules below were run against Histone-lysine N-methyltransferase EHMT2 (Homo sapiens) (UniProt Q96KQ7) (assay: qHTS Assay for Inhibitors of Histone Lysine Methyltransferase G9a). Settings: G9a H3K9 monomethylation, AlphaScreen, 2 h; activity, negative = inhibition: at 59 µM (top of the series) unless noted.
UniProt Q96KQ7, sequence (Q96KQ7 whole entry, looked up): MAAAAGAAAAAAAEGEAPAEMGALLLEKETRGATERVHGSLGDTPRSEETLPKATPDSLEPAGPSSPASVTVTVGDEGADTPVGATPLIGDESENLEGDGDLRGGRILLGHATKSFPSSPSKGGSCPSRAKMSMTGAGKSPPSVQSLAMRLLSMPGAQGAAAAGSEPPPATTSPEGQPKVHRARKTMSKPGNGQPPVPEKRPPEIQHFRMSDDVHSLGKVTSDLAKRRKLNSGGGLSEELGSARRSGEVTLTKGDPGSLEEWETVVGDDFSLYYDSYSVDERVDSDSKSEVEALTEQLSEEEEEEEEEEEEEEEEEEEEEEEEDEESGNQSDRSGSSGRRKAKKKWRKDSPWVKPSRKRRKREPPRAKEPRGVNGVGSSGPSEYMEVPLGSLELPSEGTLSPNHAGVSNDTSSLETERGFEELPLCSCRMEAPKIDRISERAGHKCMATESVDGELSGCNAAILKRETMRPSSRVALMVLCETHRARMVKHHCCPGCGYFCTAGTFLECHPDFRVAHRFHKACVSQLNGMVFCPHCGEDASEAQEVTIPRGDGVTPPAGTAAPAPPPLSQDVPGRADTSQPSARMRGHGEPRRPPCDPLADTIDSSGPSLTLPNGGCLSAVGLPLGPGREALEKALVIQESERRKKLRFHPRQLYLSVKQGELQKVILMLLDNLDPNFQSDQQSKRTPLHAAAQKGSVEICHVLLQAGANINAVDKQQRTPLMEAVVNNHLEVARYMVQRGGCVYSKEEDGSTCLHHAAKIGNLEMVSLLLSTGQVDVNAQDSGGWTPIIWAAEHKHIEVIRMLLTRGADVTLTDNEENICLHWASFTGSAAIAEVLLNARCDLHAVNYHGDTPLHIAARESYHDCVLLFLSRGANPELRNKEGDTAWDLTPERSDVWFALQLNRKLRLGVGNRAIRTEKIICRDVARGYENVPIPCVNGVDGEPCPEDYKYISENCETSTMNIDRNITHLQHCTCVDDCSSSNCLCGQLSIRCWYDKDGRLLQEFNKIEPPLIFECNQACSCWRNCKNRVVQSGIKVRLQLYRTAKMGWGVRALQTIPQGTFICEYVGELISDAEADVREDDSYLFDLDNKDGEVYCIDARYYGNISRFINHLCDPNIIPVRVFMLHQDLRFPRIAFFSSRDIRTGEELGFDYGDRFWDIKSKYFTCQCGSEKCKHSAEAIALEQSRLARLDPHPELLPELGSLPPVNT
Procedure, shortened: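 Using a bead-based AlphaScreen, monomethylated H3K9 product from 2 h room-temperature reactions (G9a 20 nM, peptide 500 nM, SAM 20 uM) was detected with 0.5 ug/mL rabbit anti-H3K9me1 antibody.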
With COc1ccc(C(=O)Nc2ccc(NC(=O)c3cccs3)cn2)cc1 the Potency was active: 22.4 µM. For COc1cccc(CN(Cc2cccnc2)S(=O)(=O)c2ccc(-n3cnnn3)c(C)c2)c1OC, the Potency was active: 25.1 µM. CN1CCN(C(=S)Nc2ccc(Oc3ccccc3)cc2)CC1 was tested, and the Potency was inconclusive: 44.7 µM [inhibitor, partial curve, poor fit]. Cc1cccc(-n2ncc3c(N4CCOCC4)ncnc32)c1 was tested, and the Potency was inconclusive: 56.2 µM [inhibitor, partial curve, poor fit]. In the case of COc1cccc(NC(=O)CSc2nnc(NC(=O)C3CC3)s2)c1, the Potency was inconclusive: 35.5 µM [inhibitor, single point]. For COC(=O)c1ccc(/C=N/Nc2nc(-c3ccccc3)cs2)cc1, the Potency was inconclusive: 79.4 µM [inhibitor, single point]. For CC(C)Cn1c(-c2ccncc2)n[nH]c1=S, the Potency was active: 7.08 µM. O=c1cc(CCl)nc2scc(-c3ccccc3)n12 was tested, and the Potency was active: 50.1 µM. COCCCNC(=O)C(=O)NCC(c1ccco1)N1CCN(c2ccc(OC)cc2)CC1 (stereo unspecified) was tested, and the Potency was inconclusive: 89.1 µM [inhibitor, single point]. With CCN=C1S/C(=C\c2ccc(O)c(OCC)c2)C(=O)N1CC the Potency was “inactive”. With COc1ccc2nc(NC(=O)C3CCCN(S(=O)(=O)c4cccs4)C3)sc2c1 (stereo unspecified) the activity, negative = inhibition was inactive: -7.88% [at 12.7 µM]. With CC(=O)Nc1ccc(-c2csc(NCc3ccco3)n2)cc1 the Potency was active: 10 µM. For O=C(CSc1nc2ccc([N+](=O)[O-])cc2[nH]1)c1ccc(Cl)cc1, the Potency was active: 5.01 µM. With Cc1ccc(N(Cc2ccccc2)C(=O)c2ccc(F)cc2)cc1 the Potency was active: 20 µM. In the case of COc1ccc(CN2CCc3cc(OC)c(OC)cc3C2)cc1O, the Potency was “inactive”. CC(=O)Nc1ccc(-c2csc(NC(=O)c3ccc(C)o3)n2)cc1 was tested, and the Potency was active: 44.7 µM. OCCCn1c(CCCNc2nc(-c3cccc(Br)c3)cs2)nc2cc(Cl)c(N3CCCCC3)cc21 was tested, and the Potency was inconclusive: 70.8 µM [inhibitor, single point]. With COc1cc(OC)c(NC(=O)c2sc3nc4n(c(=O)c3c2C)CCCC4)cc1Cl the Potency was inconclusive: 14.1 µM [inhibitor, partial curve, poor fit]. In the case of O=C(NC(=S)Nc1ccc(CN2CCCCC2)cc1)c1cccc(OCc2ccccc2)c1, the activity, negative = inhibition was inconclusive: -89.3% [inhibitor]. In the case of CCC(C)C(=O)Nc1nnc(SCC(=O)NC2CCCC2)s1 (stereo unspecified), the Potency was “inactive”. CCCc1cnc2c(c1SCc1cccc(C)c1)c(=O)n(C)c(=O)n2C was tested, and the Potency was inconclusive: 8.91 µM [inhibitor, partial curve]. O=C(CCSc1nnc(-c2ccncc2)o1)Nc1cccc2ccccc12 was tested, and the Potency was “inactive”. For N#CC1=C(N)S[C@H](C(=O)C23CC4CC(CC(C4)C2)C3)[C@H]1c1ccncc1, the activity, negative = inhibition was inconclusive: -78.5% [inhibitor]. With COc1ccc2nc(NC(=O)CSc3nc(C)cc(C)n3)sc2c1 the Potency was inconclusive: 89.1 µM [inhibitor, single point]. COc1ccc(N2CCN(C(CNC(=O)c3cccs3)c3ccco3)CC2)cc1 (stereo unspecified) was tested, and the Potency was active: 44.7 µM. In the case of CCn1nc(C)c(NC(=O)CCCSc2nc(-c3ccco3)cc(C(F)(F)F)n2)c1C, the Potency was inconclusive: 25.1 µM [inhibitor, single point]. In the case of CCOc1ccccc1NC(=O)CSc1nc2ccccc2nc1Cc1ccc(C)cc1, the Potency was “inactive”. For Cn1c(=O)c2c(nc(N3CCCCC3)n2CCNC2=NCCC2)n(C)c1=O, the Potency was “inactive”. In the case of O=C1CC(SCc2nc3ccccc3[nH]2)C(=O)N1c1ccc(F)cc1 (stereo unspecified), the Potency was inconclusive: 3.16 µM [inhibitor, partial curve, poor fit]. Cc1ccc2c(Sc3ccccc3)c(C(=O)NCc3ccccc3F)[nH]c2c1 was tested, and the Potency was inconclusive: 35.5 µM [inhibitor, single point]. O=C1[C@@H]2C(Cc3ccc(O)cc3)NC3(C(=O)Nc4ccc(F)cc43)[C@@H]2C(=O)N1c1ccccc1 (stereo partly specified) was tested, and the Potency was active: 79.4 µM. COCCn1c(SC(C(=O)Nc2cc(C)ccc2OC)c2ccccc2)nnc1-c1ccc(Cl)cc1 (stereo unspecified) was tested, and the Potency was inconclusive: 22.4 µM [inhibitor, single point]. COc1ccc(Cl)cc1-c1n[nH]c(=S)n1Cc1ccccc1 was tested, and the Potency was active: 3.16 µM. CC(=O)Nc1ccc(C(=O)OCC(=O)N(Cc2ccccc2)C(C)(C)C)cc1 was tested, and the Potency was “inactive”. With CCNC(=O)/C=C1\NC(C)(C)Cc2c1ccc1ccccc21 the Potency was active: 11.2 µM. For O=C(CC1C(=O)OCCN1Cc1ccccc1)Nc1cccc(Cl)c1 (stereo unspecified), the Potency was inconclusive: 25.1 µM [inhibitor, partial curve, poor fit]. For CCC(=O)Nc1cccc(NC(=S)NC(=O)Cc2ccccc2)c1, the Potency was inconclusive: 39.8 µM [inhibitor, partial curve, poor fit]. C=CS(=O)c1sc(Cl)c(N2CCOCC2)c1[N+](=O)[O-] (stereo unspecified) was tested, and the Potency was active: 1.58 µM. With COC(=O)CC1=C(C(=O)OC)C(c2cccs2)C(C#N)=C(N)O1 (stereo unspecified) the Potency was inconclusive: 79.4 µM [inhibitor, single point]. With Cc1sc2nc(CN3CCOCC3)[nH]c(=S)c2c1C the Potency was active: 39.8 µM. In the case of Cc1ccccc1OCC(=O)NN1C(=O)C2C3C=CC(O3)C2C1=O (stereo unspecified), the Potency was inconclusive: 15.8 µM [inhibitor, full curve, poor fit]. With COC1=C(OC)C(=O)C(CCCCCCCCCCO)=C(C)C1=O the Potency was inconclusive: 15.8 µM [inhibitor, partial curve, poor fit] and inconclusive: 11.2 µM [inhibitor, partial curve]. For O=C(CCS(=O)(=O)c1ccccc1Cl)NCc1ccc(F)cc1, the Potency was active: 50.1 µM. With O=C(Nc1nc(-c2cc(F)ccc2F)cs1)C1=COCCO1 the Potency was “inactive”. Cc1ccc(NC(=S)NNC(=S)NCc2ccccc2)cc1 was tested, and the Potency was inconclusive: 0.794 µM [inhibitor, full curve, poor fit]. C=CCNc1nc(-c2sc(NC(C)=O)nc2C)cs1 was tested, and the Potency was active: 17.8 µM. For O=C(CCCN=C1NS(=O)(=O)c2ccccc21)OCC(=O)c1ccccc1Cl, the Potency was inconclusive: 89.1 µM [inhibitor, partial curve, poor fit]. With Cc1[nH]c2ccc(C(=O)NCCCN3CCCC3)cc2c1C the Potency was inconclusive: 79.4 µM [inhibitor, single point]. COc1cccc(C=Nc2ccc(N3CCOCC3)cc2)c1O was tested, and the Potency was inconclusive: 89.1 µM [inhibitor, single point]. For CC(=O)Nc1ccc(NC(=O)CCc2c(C)nc3c(c(C)nn3-c3ccc(C)cc3)c2C)cc1, the Potency was “inactive”. CC(C)c1cnc(NC(=O)Cc2ccccc2)s1 was tested, and the Potency was inconclusive: 11.2 µM [inhibitor, partial curve, poor fit]. For COc1ccc(NC(=O)N2CCCC3(CCN(C(=O)c4cccn4C)CC3)C2)cc1, the activity, negative = inhibition was inactive: 10.1% [at 12.7 µM]. For CCOC(=O)c1sc(N2C(=O)c3oc4cc(C)c(C)cc4c(=O)c3C2c2ccc(C)cc2)nc1C (stereo unspecified), the Potency was “inactive”. With CCOC(=O)Cc1csc(N)n1 the Potency was inconclusive: 70.8 µM [inhibitor, single point]. In the case of COc1ccc(-c2nc3cnc(Nc4cccc(OC)c4)nc3n(C3CC3)c2=O)cc1, the activity, negative = inhibition was inactive: 5.84% [at 0.501 µM]. With Cc1ccc(S(=O)(=O)CCc2nnc(NC(=O)c3cnccn3)s2)cc1 the Potency was inconclusive: 3.55 µM [inhibitor, single point]. CC(C)(C)c1ccc(/C=N/NC(=S)NC2CCCCC2)cc1 was tested, and the Potency was “inactive”. In the case of CC(c1nc2ccccc2c(=O)[nH]1)N(C)c1ccc2ccccc2c1 (stereo unspecified), the Potency was inconclusive: 79.4 µM [inhibitor, single point]. With CCc1cc2cc3c(cc2nc1SCC(=O)Nc1cc(OC)c(OC)cc1C(=O)O)OCO3 the Potency was inconclusive: 50.1 µM [inhibitor, partial curve]. In the case of C(#Cc1ccc(C#CCN2CCCC2)cc1)CN1CCCC1, the Potency was inconclusive: 20 µM [inhibitor, single point]. With COc1ccc(Nc2nc(N)c(C(=O)c3ccc(OC)cc3)s2)cc1 the Potency was inconclusive: 79.4 µM [inhibitor, single point]. Cc1ccc2cccc(OCC(=O)NCc3ccco3)c2n1 was tested, and the Potency was “inactive”. COC(=O)c1cccc(N2C(=O)c3cccnc3C2=O)c1 was tested, and the Potency was inconclusive: 39.8 µM [inhibitor, single point]. With CC(=O)Nc1ccc(C(=O)OCC(=O)N2CCC(Cc3ccccc3)CC2)cc1 the Potency was inconclusive: 3.55 µM [inhibitor, partial curve, poor fit]. CCc1cccc(C)c1NC(=O)c1cc(S(=O)(=O)N(C)Cc2ccccc2)ccc1F was tested, and the Potency was inconclusive: 0.794 µM [inhibitor, partial curve, poor fit]. OCC1(CCOc2ccccc2)CCN(CC2=Cc3cc(Cl)ccc3OC2)CC1 was tested, and the Potency was inconclusive: 10 µM [inhibitor, partial curve, poor fit]. In the case of CCOC(=O)c1c(NC(=O)COC(=O)CNC(=O)c2ccc(Cl)cc2Cl)sc(C(=O)N(C)C)c1C, the Potency was “inactive”. In the case of Cc1cccc(Nc2nc(N)nc(CN3CCN(Cc4ccc5c(c4)OCO5)CC3)n2)c1, the Potency was “inactive”. COc1cc2cc(C(c3nnnn3C3CCCCC3)N(C)C3CCCCC3)c(=O)[nH]c2cc1OC (stereo unspecified) was tested, and the Potency was inconclusive: 6.31 µM [inhibitor, single point]. For COc1cc(C#Cc2c(-c3cncn3C)n(C)c3ccc(-c4cnc(OC)nc4)cc23)cc(OC)c1, the activity, negative = inhibition was inactive: 6.53% [at 0.501 µM]. In the case of CCOC(=O)c1c(NC(=S)Nc2cccnc2)sc(C)c1C, the Potency was active: 44.7 µM.
% is scaled to controls: 0 for no effect and ±100 for the full control effect; potency is read from the fitted curve at half-maximal effect; tags tell the direction and shape of the fitted curve.
Also: nearly all actives have a fitted effect of over 75% in size.
